# About 1,800 (2.5%) of roughly 73,000 compounds were called active. The inconclusive results got no clear call from the source; some entries with a clear call stand among them for comparison. The call rests on the fitted dose curve; in most records, active means well fitted activation curve with a large enough effect; inconclusive means small, poorly fitted or top-dose-only effect; inactive means no such curve, though single readings can be large or run the other way. Potencies of inconclusive entries are left out as doubtful fits.
# Assay: qHTS Assay for Agonists of the Thyroid Stimulating Hormone Receptor: Activators of Intracellular cAMP Concentrations in Parental HEK 293; further: nearly all actives have a fitted effect of over 55% in size; on activation: % of control where 0% means no effect
# Settings: parental HEK293 CNG cAMP sensor, membrane potential fluorescence; activation: at 57.1 µM (top of the series) unless noted
# Summary of the method: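 Parental HEK 293 cells stably expressing a modified CNG channel (no TSHR) report cAMP rise as membrane depolarization. Membrane potential dye with 100 uM RO 20-1724 was loaded for 60 min at room temperature, then compound added for 30 min; fluorescence read at 590 nm.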
# Potency means the concentration at half of the fitted maximal effect; tags describe the fitted curve by direction and shape.
Structure (SMILES),Potency,activation
Cc1cc(C(F)F)n2ncc(C(=O)NCc3ccccc3)c2n1,"inconclusive [activator, single point]",
CCN(CC)S(=O)(=O)c1cccc(C(=O)Nc2ccc(Cl)cn2)c1,"inconclusive [activator, partial curve]",
Cc1nc(NC2CCCCC2)c2nc(-c3ccccc3)n(CCCN3CCOCC3)c2n1,"inconclusive [activator, full curve, poor fit]",
CCOC(=O)Cc1csc(NC(=O)c2ccc(Br)s2)n1,"inconclusive [activator, single point]",
CCCC[C@@H]1C[C@H]1C(NC(=O)c1cccnc1)c1ccc(Cl)cc1 (some centres not stated),active: 25.1 µM,
COc1ccc(CNc2nc(-c3cccc(C#N)c3)nc3ccccc23)c(OC)c1,"inconclusive [activator, single point]",
COC(=O)NC(c1cccc(C)c1)C(C(C)=O)C(=O)OC (configuration not stated),,inactive: 3.39% [at 11.4 µM]
COC(=O)NC(CC(C)=O)c1ccco1 (configuration not stated),,inactive: -1.61% [at 11.4 µM]
COc1ccc(Oc2ncc3nc(C)c(=O)n(CCC#N)c3n2)cc1,"inconclusive [activator, partial curve]",
COC(=O)c1ccccc1NC(=O)c1ccccc1SC,"inconclusive [activator, single point]",
CCN(CC)S(=O)(=O)c1cccc(-c2nnc(SCc3ncc(-c4ccccc4)o3)n2C)c1,"inconclusive [activator, single point]",
COC(=O)N1CCC2(CCN(Cc3cc(C(F)(F)F)cc(C(F)(F)F)c3)CC2)CC1,"inconclusive [activator, partial curve, poor fit]",
CC1Cn2c(nnc2-c2ccc(F)cc2)S1 (configuration not stated),active: 3.98 µM,
Cn1c(=O)c2[nH]c(-c3cccnc3)nc2n(C)c1=O,"inconclusive [activator, single point]",
O=c1c(-c2cccs2)nc2cnc(N3CCNCC3)nc2n1C1CC1,inactive,
c1ccc2c(c1)ncn2Cc1nnc2sc(-c3ccc4c(c3)OCO4)nn12,"inconclusive [activator, partial curve]",
CCOC(=O)N1CCc2c(sc3c2C(=O)NC(c2ccccc2)N3)C1 (configuration not stated),"inconclusive [activator, partial curve]",
O=C(Nc1nccs1)C1C2CC3OC(=O)C1C3C2 (configuration not stated),"inconclusive [activator, single point]",
CCN1CCc2c(sc3c2c(NCc2ccco2)nc2nnnn23)C1,"inconclusive [activator, single point]",
CC(C)Oc1ccc(C(=O)Nc2ccc(N(C)C)cc2)cc1,,inactive: 0.212% [at 11.4 µM]
O=C(Nc1ccc(N2CCCC2)cc1)c1cccc(F)c1,"inconclusive [activator, single point]",
COc1cc2c(cc1OC)C1=C(C#N)CC/C(=N\S(=O)(=O)c3ccccc3)N1CC2,"inconclusive [activator, full curve]",
O=C(C1CCN(S(=O)(=O)c2ccccc2)CC1)N(CCc1ccccc1)Cc1ccco1,"inconclusive [activator, partial curve]",

Structure (SMILES),Potency,activation
COc1ccc(OC)c(C2C(C(=O)c3cc4ccccc4o3)=C(O)C(=O)N2c2cc(C)on2)c1 (configuration not stated),"inconclusive [activator, full curve]",
CN(C)c1ncnc2ccc(-c3ccccc3C(F)(F)F)cc12,"inconclusive [activator, partial curve]",
COc1cccc(Cn2c(=O)c(-c3cccs3)nc3cnc(OCc4ccccc4)nc32)c1,"inconclusive [activator, partial curve]",
CN(CC(=O)NC1CCCc2ccccc21)S(=O)(=O)c1ccc2c(c1)c(=O)n(C)c(=O)n2C (configuration not stated),"inconclusive [activator, single point]",
Clc1ccccc1-c1nnn(Cc2ccc(-c3nn[nH]n3)cc2)n1,inactive,
N#CCSc1n[nH]c2nc3c(c(=O)n12)C1(CCCC1)Cc1ccccc1-3,"inconclusive [activator, partial curve]",
O=C(Nc1nc(-c2nc3ccccc3s2)cs1)C1COc2ccccc2O1 (configuration not stated),"inconclusive [activator, single point]",
Fc1ccc(-c2nnc(CN3CCC(c4nc5ccccc5s4)CC3)o2)cc1,"inconclusive [activator, partial curve]",
CSc1nsc(SCC(=O)Nc2cccc(C(C)=O)c2)n1,"inconclusive [activator, single point]",
O=c1cc(CSc2nnc(-c3ccco3)o2)c2ccccc2[nH]1,"inconclusive [activator, single point]",
Cc1ccc(C)c(Oc2nnnn2-c2ccccc2)c1,"inconclusive [activator, single point]",
Cc1cc(NC(=O)c2ccc(Br)c(S(=O)(=O)N3CCCC3)c2)no1,"inconclusive [activator, single point]",
CC(C)c1cc(C(=O)Nc2cccc(Cl)c2)no1,inactive,
CC(C)OC(=O)CC(=O)CSc1nc2c(cc1C#N)CCC2,"inconclusive [activator, single point]",
O=C(NCCN1CCCC1=O)Nc1ccccc1,"inconclusive [activator, single point]",
COc1cccc(OCCn2cc(C(=O)c3ccco3)c3ccccc32)c1,"inconclusive [activator, partial curve]",
CS(=O)(=O)N1CCC2(CC1)CN(C(=O)Nc1cccc(C#N)c1)C2,inactive,
O=C(CCCN=C1NS(=O)(=O)c2ccccc21)OCC(=O)N1CCc2ccccc21,inactive,
NC(=O)c1ccsc1NC(=O)CSc1nc2ccccc2c(=O)n1CCCO,"inconclusive [activator, single point]",
CC1CCc2cccc3c2N1c1cc(C#N)c(C#N)cc1O3 (configuration not stated),inactive,
S=c1nc(-c2nc(=S)[nH]c3c2CCCCCCCCCC3)c2c([nH]1)CCCCCCCCCC2,"inconclusive [activator, single point]",
Cn1cccc1-c1nc2ccccc2n1Cc1ccccc1,active: 31.6 µM,
CC(C)(C)c1cc(O)c(C(C)(C)C)cc1O,inactive,

Structure (SMILES),Potency,activation
CC(C)c1ccccc1S(=O)(=O)c1cc(N)c2ncccc2c1[N+](=O)[O-],"inconclusive [activator, single point]",
CCOC(=O)N1CC=C2C(C#N)=C(N)C(C#N)(C#N)[C@H](c3ccccc3OCC)[C@H]2C1,"inconclusive [activator, single point]",
C=CCOC(=O)C(C(C)=O)C(NC(=O)OC)c1cccs1 (configuration not stated),,inactive: 5% [at 11.4 µM]
CCCC[C@@H]1C[C@H]1C(NC(=O)c1ccccc1)c1ccccc1 (some centres not stated),active: 12.6 µM,
CCOC(=O)C1=C(N)N(c2ccc(N3CCCCC3)cc2)C(=O)C1,"inconclusive [activator, single point]",
COc1ccccc1C(=O)Nc1ccc2c(c1)OCCO2,"inconclusive [activator, single point]",
Cc1noc(C)c1CSc1ccccc1C(=O)N1CCN(c2ccccc2)CC1,inactive,
CCN(CC)c1ccc(NC(=O)C2CCCN(S(=O)(=O)c3cccnc3)C2)c(C)c1 (configuration not stated),"inconclusive [activator, single point]",
N=c1c(S(=O)(=O)c2ccc(Cl)cc2)cc2c(=O)n3ccccc3nc2n1CCN1CCOCC1,"inconclusive [activator, single point]",
CCC(CC)c1nnc(NC(=O)c2c(-c3ccccc3)noc2C)s1,"inconclusive [activator, single point]",
O=C(NCc1cccnc1)C1CC(=O)N(C2CCCCC2)C1 (configuration not stated),"inconclusive [activator, partial curve]",
COc1cc(NS(=O)(=O)c2ccc(C)cc2)c2ncccc2c1,"inconclusive [activator, single point]",
Cc1ccc2c(c1)N(CC(=O)c1cccc(Cl)c1)C(=O)C(C)O2 (configuration not stated),active: 20 µM,
CCN(CC)C(=O)CSc1nc2ccccc2c(=O)n1-c1ccccc1OC,"inconclusive [activator, partial curve]",
O=C(Cn1nc(Cl)nc1Cl)c1cc2ccccc2oc1=O,"inconclusive [activator, single point]",
Cc1ccc(Cn2nnc3c(=O)n(Cc4cccc(C)c4)cnc32)cc1,"inconclusive [activator, partial curve]",
Clc1ccccc1NN(Cc1ccccn1)c1ccccc1Cl,"inconclusive [activator, single point]",
CCC1CCCCN1Cc1nc2c(c(=O)n(C)c(=O)n2C)n1CC(C)C (configuration not stated),"inconclusive [activator, single point]",
CCNc1ncc2nc(-c3ccc(F)cc3)c(=O)n(CCC#N)c2n1,,inactive: 8.99% [at 0.457 µM]
CN(C)C(=O)c1ccc(-c2ccc3ncnc(NCc4cccs4)c3c2)cc1,inactive,
CC(C)C[C@@H](CC(=O)N[C@H](CC(=O)N[C@@H]1CCNC[C@H]1C(=O)N[C@H](CC(=O)N[C@@H](CCC(=O)O)CC(=O)O)Cc1c[nH]c2ccccc12)C(C)C)NC(=O)[C@@H]1CCCC[C@H]1N,"inconclusive [activator, single point]",

# Source: PubChem BioAssay AID938 (National Center for Advancing Translational Sciences (NCATS), 2007)
